# Test results published in the supplement of paper PMC8728848.
# The list shows a part of the results.
# Experiments:
# Experiment in all cases: glycan array binding signal (z-score within array); higher = stronger binding
# Conditions in all cases: glycan notation: IUPAC condensed, linker removed
# [1] = target: Fuc(a1-2)Gal(b1-4)[Fuc(a1-3)]GlcNAc(b1-3)GalNAc
# How it was run: (§1)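 The binding signal is a Z-score computed within each array. Data were drawn from 3228 arrays in the Consortium for Functional Glycomics database, restricted to those with a known protein sequence. Scores were averaged over arrays of the same protein sequence at different concentrations or buffers, and over linkers, and negative values can be taken as non-binding.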
# [2] = target: Fuc(a1-2)Gal(b1-4)[Fuc(a1-3)]GlcNAc(b1-3)[Neu5Ac(a2-6)Gal(b1-4)GlcNAc(b1-6)]Gal(b1-4)Glc
# How it was run: as §1
# [3] = target: Fuc(a1-2)Gal3S(b1-4)GlcNAc
# How it was run: as §1
# [4] = target: Fuc(a1-2)Gal6S(b1-3)GlcNAc
# How it was run: as §1
# [5] = target: Fuc(a1-2)Gal6S(b1-3)GlcNAc6S
# How it was run: as §1
# Fuc(a1-2)Gal6S(b1-4)Glc = target: Fuc(a1-2)Gal6S(b1-4)Glc
# How it was run: as §1
# [6] = target: Fuc(a1-2)Gal6S(b1-4)Glc6S
# How it was run: as §1
# Fuc(a1-2)GlcNAc = target: Fuc(a1-2)GlcNAc
# How it was run: as §1
# Fuc(a1-2)[Gal(a1-3)]Gal = target: Fuc(a1-2)[Gal(a1-3)]Gal
# How it was run: as §1
# [7] = target: Fuc(a1-2)[Gal(a1-3)]Gal(b1-3)GalNAc
# How it was run: as §1
# [8] = target: Fuc(a1-2)[Gal(a1-3)]Gal(b1-3)GalNAc(b1-3)Gal(a1-4)Gal(b1-4)Glc
# How it was run: as §1
# [9] = target: Fuc(a1-2)[Gal(a1-3)]Gal(b1-3)GlcNAc
# How it was run: as §1
# [10] = target: Fuc(a1-2)[Gal(a1-3)]Gal(b1-3)GlcNAc(b1-2)Man(a1-3)[Fuc(a1-2)[Gal(a1-3)]Gal(b1-3)GlcNAc(b1-2)Man(a1-6)]Man(b1-4)GlcNAc(b1-4)GlcNAc
# How it was run: as §1
# [11] = target: Fuc(a1-2)[Gal(a1-3)]Gal(b1-3)GlcNAc(b1-2)Man(a1-3)[Fuc(a1-2)[Gal(a1-3)]Gal(b1-3)GlcNAc(b1-2)Man(a1-6)]Man(b1-4)GlcNAc(b1-4)[Fuc(a1-6)]GlcNAc
# How it was run: as §1
# [12] = target: Fuc(a1-2)[Gal(a1-3)]Gal(b1-3)GlcNAc(b1-3)GalNAc
# How it was run: as §1
# [13] = target: Fuc(a1-2)[Gal(a1-3)]Gal(b1-3)GlcNAc(b1-6)GalNAc
# How it was run: as §1
# [14] = target: Fuc(a1-2)[Gal(a1-3)]Gal(b1-4)Glc
# How it was run: as §1
# [15] = target: Fuc(a1-2)[Gal(a1-3)]Gal(b1-4)GlcNAc
# How it was run: as §1
# [16] = target: Fuc(a1-2)[Gal(a1-3)]Gal(b1-4)GlcNAc(b1-2)Man
# How it was run: as §1
# [17] = target: Fuc(a1-2)[Gal(a1-3)]Gal(b1-4)GlcNAc(b1-2)Man(a1-3)[Fuc(a1-2)[Gal(a1-3)]Gal(b1-4)GlcNAc(b1-2)Man(a1-6)]Man(b1-4)GlcNAc(b1-4)GlcNAc
# How it was run: as §1
# [18] = target: Fuc(a1-2)[Gal(a1-3)]Gal(b1-4)GlcNAc(b1-2)Man(a1-3)[Fuc(a1-2)[Gal(a1-3)]Gal(b1-4)GlcNAc(b1-2)Man(a1-6)]Man(b1-4)GlcNAc(b1-4)[Fuc(a1-6)]GlcNAc
# How it was run: as §1
# [19] = target: Fuc(a1-2)[Gal(a1-3)]Gal(b1-4)GlcNAc(b1-3)GalNAc
# How it was run: as §1
# [20] = target: Fuc(a1-2)[Gal(a1-3)]Gal(b1-4)GlcNAc(b1-3)[Fuc(a1-2)[Gal(a1-3)]Gal(b1-4)GlcNAc(b1-6)]GalNAc
# How it was run: as §1
# [21] = target: Fuc(a1-2)[Gal(a1-3)]Gal(b1-4)GlcNAc(b1-6)GalNAc
# How it was run: as §1
# [22] = target: Fuc(a1-2)[Gal(a1-3)]Gal(b1-4)[Fuc(a1-3)]Glc
# How it was run: as §1
# [23] = target: Fuc(a1-2)[Gal(a1-3)]Gal(b1-4)[Fuc(a1-3)]GlcNAc
# How it was run: as §1
# [24] = target: Fuc(a1-2)[Gal(a1-3)]Gal(b1-4)[Fuc(a1-3)]GlcNAc(b1-3)GalNAc
# How it was run: as §1
# [25] = target: Fuc(a1-2)[Gal(a1-4)]Gal(b1-4)GalNAc
# How it was run: as §1
# [26] = target: Fuc(a1-2)[Gal(a1-4)]Gal(b1-4)GlcNAc
# How it was run: as §1
# [27] = target: Fuc(a1-2)[GalNAc(a1-3)]Gal
# How it was run: as §1
# [28] = target: Fuc(a1-2)[GalNAc(a1-3)]Gal(b1-3)GalNAc(a1-3)[Fuc(a1-2)]Gal(b1-4)GlcNAc
# How it was run: as §1
# [29] = target: Fuc(a1-2)[GalNAc(a1-3)]Gal(b1-3)GalNAc(b1-3)Gal(a1-4)Gal(b1-4)Glc
# How it was run: as §1
# [30] = target: Fuc(a1-2)[GalNAc(a1-3)]Gal(b1-3)GlcNAc
# How it was run: as §1
# [31] = target: Fuc(a1-2)[GalNAc(a1-3)]Gal(b1-3)GlcNAc(b1-2)Man(a1-3)[Fuc(a1-2)[GalNAc(a1-3)]Gal(b1-3)GlcNAc(b1-2)Man(a1-6)]Man(b1-4)GlcNAc(b1-4)GlcNAc
# How it was run: as §1
# [32] = target: Fuc(a1-2)[GalNAc(a1-3)]Gal(b1-3)GlcNAc(b1-2)Man(a1-3)[Fuc(a1-2)[GalNAc(a1-3)]Gal(b1-3)GlcNAc(b1-2)Man(a1-6)]Man(b1-4)GlcNAc(b1-4)[Fuc(a1-6)]GlcNAc
# How it was run: as §1
# [33] = target: Fuc(a1-2)[GalNAc(a1-3)]Gal(b1-3)GlcNAc(b1-3)GalNAc
# How it was run: as §1
# [34] = target: Fuc(a1-2)[GalNAc(a1-3)]Gal(b1-3)GlcNAc(b1-6)GalNAc
# How it was run: as §1
# [35] = target: Fuc(a1-2)[GalNAc(a1-3)]Gal(b1-4)Glc
# How it was run: as §1
# [36] = target: Fuc(a1-2)[GalNAc(a1-3)]Gal(b1-4)GlcNAc
# How it was run: as §1
# [37] = target: Fuc(a1-2)[GalNAc(a1-3)]Gal(b1-4)GlcNAc(b1-2)Man
# How it was run: as §1
# [38] = target: Fuc(a1-2)[GalNAc(a1-3)]Gal(b1-4)GlcNAc(b1-2)Man(a1-3)[Fuc(a1-2)[GalNAc(a1-3)]Gal(b1-4)GlcNAc(b1-2)Man(a1-6)]Man(b1-4)GlcNAc(b1-4)GlcNAc
# How it was run: as §1
# [39] = target: Fuc(a1-2)[GalNAc(a1-3)]Gal(b1-4)GlcNAc(b1-2)Man(a1-3)[Fuc(a1-2)[GalNAc(a1-3)]Gal(b1-4)GlcNAc(b1-2)Man(a1-6)]Man(b1-4)GlcNAc(b1-4)[Fuc(a1-6)]GlcNAc
# How it was run: as §1
# [40] = target: Fuc(a1-2)[GalNAc(a1-3)]Gal(b1-4)GlcNAc(b1-3)Gal(b1-4)GlcNAc
# How it was run: as §1
# [41] = target: Fuc(a1-2)[GalNAc(a1-3)]Gal(b1-4)GlcNAc(b1-3)Gal(b1-4)GlcNAc(b1-3)Gal(b1-4)GlcNAc
# How it was run: as §1
# [42] = target: Fuc(a1-2)[GalNAc(a1-3)]Gal(b1-4)GlcNAc(b1-3)GalNAc
# How it was run: as §1
binder,measurement,setting,value
Epa12 (Candida glabrata) (protein) MGSSHHHHHHSSGLVPRGSHMLEPDNSLQIFDSFLSNPSKYPLGCSPKITNPKKGLSMELYSYPYRKKGSHPCWDPAYLDPNFPRVGYKKNKLIARVDGVSGDINFNFHPKRQCTPIADYLPPNFNYNEPITTTNFTMLLYGYFKPKVTGLHTFDISADDLLFMNFGAGNAFDCCRRDSTADTFGNYVAWAIWGRRIVRNKLTVRLDKGIYYPLRLFFNNRDYYGQMRLTFKTEHGSERITDFSDYFFSVDDTSEGCPGLITYESECADVKSSTVLETDYITIQAEKE,glycan array binding signal (z-score),[1],-0.218
same,glycan array binding signal (z-score),[2],-0.255
same,glycan array binding signal (z-score),[3],0.06
same,glycan array binding signal (z-score),[4],-0.227
same,glycan array binding signal (z-score),[5],0.095
same,glycan array binding signal (z-score),Fuc(a1-2)Gal6S(b1-4)Glc,-0.216
same,glycan array binding signal (z-score),[6],0.024
same,glycan array binding signal (z-score),Fuc(a1-2)GlcNAc,-0.268
same,glycan array binding signal (z-score),Fuc(a1-2)[Gal(a1-3)]Gal,1.07
same,glycan array binding signal (z-score),[7],0.314
same,glycan array binding signal (z-score),[8],-0.19
same,glycan array binding signal (z-score),[9],-0.006
same,glycan array binding signal (z-score),[10],-0.314
same,glycan array binding signal (z-score),[11],-0.1
same,glycan array binding signal (z-score),[12],-0.246
same,glycan array binding signal (z-score),[13],-0.117
same,glycan array binding signal (z-score),[14],-0.13
same,glycan array binding signal (z-score),[15],0.356
same,glycan array binding signal (z-score),[16],-0.032
same,glycan array binding signal (z-score),[17],-0.2
same,glycan array binding signal (z-score),[18],-0.163
same,glycan array binding signal (z-score),[19],-0.008
same,glycan array binding signal (z-score),[20],0.162
same,glycan array binding signal (z-score),[21],-0.348
same,glycan array binding signal (z-score),[22],-0.326
same,glycan array binding signal (z-score),[23],-0.256
same,glycan array binding signal (z-score),[24],-0.164
same,glycan array binding signal (z-score),[25],-0.204
same,glycan array binding signal (z-score),[26],4.84
same,glycan array binding signal (z-score),[27],-0.313
same,glycan array binding signal (z-score),[28],-0.325
same,glycan array binding signal (z-score),[29],-0.336
same,glycan array binding signal (z-score),[30],-0.285
same,glycan array binding signal (z-score),[31],-0.323
same,glycan array binding signal (z-score),[32],-0.264
same,glycan array binding signal (z-score),[33],-0.345
same,glycan array binding signal (z-score),[34],-0.381
same,glycan array binding signal (z-score),[35],-0.281
same,glycan array binding signal (z-score),[36],-0.321
same,glycan array binding signal (z-score),[37],-0.324
same,glycan array binding signal (z-score),[38],-0.235
same,glycan array binding signal (z-score),[39],-0.115
same,glycan array binding signal (z-score),[40],-0.402
same,glycan array binding signal (z-score),[41],-0.266
same,glycan array binding signal (z-score),[42],-0.387
